According to PubChem BioAssay AID686979 (National Center for Advancing Translational Sciences (NCATS), 2013):
Out of some 420,000 compounds screened, about 50,000 (12%) were called active. Inconclusive results, whose numbers are uncertain, are shown with a selection of clear calls. Calls come from the whole dose curve; as a rule, active = well fitted inhibition curve with a large enough effect; inconclusive = small, poorly fitted or top-dose-only effect; inactive = flat fitted curve, though single readings scatter. Potencies of inconclusive entries are left out as doubtful fits.

Experiment: qHTS for Inhibitors of human tyrosyl-DNA phosphodiesterase 1 (TDP1): qHTS in cells in presence of CPT; note: nearly all actives have a fitted effect of over 55% in size
Details: chicken DT40 Tdp1-/-;hTDP1 cells + 20 nM CPT, ATP luminescence, 48 h; activity change, negative = growth inhibition: at 46.2 µM (top of the series) unless noted
Summary of the method: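 Chicken DT40 Tdp1-/- cells stably complemented with human TDP1 were seeded at 400 cells/well in medium containing 20 nM camptothecin, exposed to pin-transferred compounds, and grown at 37 °C for at least 48 hr. Viability was read as ATP luminescence.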
% is set by controls: 0 for no effect and ±100 for the full control effect; potency is the fitted concentration of half-maximal effect; tags give direction and shape of the fitted curve.

Structure (SMILES) | Potency | activity change, negative = growth inhibition
CCCCCCSc1ccc(-c2nc3cnccn3c2NC2CCCCC2)cc1 | inconclusive [inhibitor, single point] | –
CCC1CCCCN1C(=O)c1ccc2nc(Cc3ccc(OC)cc3)oc2c1 (centres undefined) | inconclusive [inhibitor, partial curve] | –
CN(C)c1ccnc(Nc2ccc(O)cc2)c1C#N | inactive | –
Cc1cc(C)c2c(-n3cccc3)c(C(=O)NCCCN3CCCCC3)sc2n1 | inconclusive [inhibitor, single point] | –
CCN(C(=O)C1CCN(S(=O)(=O)c2ccc3c(c2)oc(=O)n3C)CC1)c1cccc(C)c1 | inconclusive [inhibitor, full curve, poor fit] | –
Cn1c(=NC(=O)CCS(=O)(=O)c2ccccc2)sc2cc(F)ccc21 | inconclusive [inhibitor, single point] | –
COc1cccc(CN2CCC2(C)C(=O)Nc2cccc3cccnc23)c1OC (centres undefined) | active: 16.4 µM | –
C#CCOCCOCCOCCNc1nc(N2CCN(C(=O)CCCCCCCCCCNC(=O)Cn3cc(C[C@@H](C)O)nn3)CC2)nc(N2CCN(C(=O)CCCCCCCCCCNC(=O)[C@H](CCCCN)n3cc(CCCC(=O)O)nn3)CC2)n1 | – | inconclusive: -25.9% [inhibitor]
COc1cc(OC)c(/C=C/c2cc3ccccc3c[n+]2C)c(OC)c1 | active: 0.501 µM | –
COc1ccc(S(=O)(=O)Nc2cc(S(=O)(=O)c3ccccc3)c(O)cc2C)cc1 | inactive | –
Cn1cccc1C(=O)N1CCC2(CCCN(C(c3ccccc3)c3ccccc3)C2)CC1 | inconclusive [inhibitor, single point] | –
COc1ccccc1NC(=O)Nc1nc(C(N)CCc2ccccc2)cs1 (centres undefined) | inconclusive [inhibitor, single point] | –
O=C(NCCN1CCCCC1)Nc1ccc(Br)cc1 | inactive | –
O=C(NCc1ccccc1)c1cc(C2COCCN2C(=O)CCc2ccccc2)on1 (centres undefined) | inactive | –
O=C(CCc1ccccc1)NCCc1csc(-c2cccc(F)c2)n1 | inconclusive [inhibitor, single point] | –
CC(C)(C)c1ccc(C(=O)Nc2ccc(O)c3c(=O)cc(-c4cccc(Cl)c4)oc23)cc1 | active: 5.8 µM | –
COc1ccc(C(=O)NC2CC2)cc1OC1CCN(Cc2ccc(F)c(F)c2)CC1 | inactive | –
Cc1cc(NC(=O)c2ccc(S(=O)(=O)N3CCc4ccccc43)cc2)no1 | inactive | –
Cc1ccc(S(=O)(=O)N2CCN(S(C)(=O)=O)C2C)cc1 (centres undefined) | inactive | –
COc1ccc(NC(=O)c2ccc3c(c2)c(C)c(C)n3Cc2ccc(F)cc2)cc1 | active: 5.17 µM | –
O=C(Nc1cccc(F)c1)c1ccc2c(c1)OCO2 | inconclusive [inhibitor, single point] | –
COc1cc(C)ccc1OCCCOc1cc(C)ccc1Cl | inconclusive [inhibitor, single point] | –
COc1ccc(-c2csc(C(C)(O)c3ccc(F)c(F)c3)n2)cn1 (centres undefined) | inconclusive [inhibitor, single point] | –

Structure (SMILES) | Potency | activity change, negative = growth inhibition
O=C(CBr)c1ccc([N+](=O)[O-])c(CS(=O)(=O)c2ccc(Cl)cc2)c1 | inconclusive [inhibitor, single point] | –
Cc1ccc(-n2c(SCC(=O)N3CC(=O)Nc4ccccc43)nc3ccccc3c2=O)cc1C | inconclusive [inhibitor, single point] | –
COc1ccc(-c2nnc(NC(=O)c3ccc(S(=O)(=O)N4COCC4(C)C)cc3)o2)cc1 | active: 3.66 µM | –
CCn1c(/C=C/c2ccccc2[N+](=O)[O-])nc2ccccc2c1=O | inconclusive [inhibitor, single point] | –
O=C(C1CCCN(S(=O)(=O)c2ccccc2)C1)N1CCCc2ccccc21 (centres undefined) | inconclusive [inhibitor, single point] | –
CC(CN(C)Cc1nc(Cc2cccc(C(F)(F)F)c2)no1)CN1CCCC1 (centres undefined) | active: 20.6 µM | –
CCN(CC(=O)Nc1c(F)cccc1F)C(=O)c1ccc(S(=O)(=O)NCc2ccco2)cc1 | – | inconclusive: -35.5% [inhibitor]
Cc1ccccc1OCCSc1nc(C)c(Cc2ccccc2)c(=O)[nH]1 | inconclusive [inhibitor, single point] | –
O=C(c1ccc([N+](=O)[O-])s1)N1CCCc2ccccc21 | inconclusive [inhibitor, single point] | –
COc1cc(C2C(C(=O)c3ccc(C)o3)=C(O)C(=O)N2c2cc(C)on2)ccc1OCc1ccccc1 (centres undefined) | inconclusive [inhibitor, single point] | –
COc1ccccc1N1CCN(Cc2cc(=O)oc3cc(C)cc(C)c23)CC1 | inconclusive [inhibitor, single point] | –
Cc1c(C(=O)O)cccc1-c1ccc(/C=C2/NC(=O)N(c3ccccc3)C2=O)o1 | inconclusive [inhibitor, single point] | –
CCOC(=O)c1c(NC(=O)CCN2C(=O)c3ccccc3C2=O)sc(C(=O)OC(C)C)c1C | – | inconclusive: -34.2% [inhibitor]
Brc1cc(Br)c2nc3c(cc2c1)CCC3 | inactive | –
CCOC(=O)C1=C(C)Nc2ccc(C)cc2S1 | inconclusive [inhibitor, single point] | –
C/C=C(\C)C(=O)N1CCC(C(=O)c2ccccc2)CC1 | inactive | –
CCN(CC)c1ccc(/C=C/c2ccnc3ccccc23)cc1 | inconclusive [inhibitor, single point] | –
O=C(Cc1cc(=O)[nH][nH]1)N/N=C/C=C/c1ccccc1 | inconclusive [inhibitor, single point] | –
COc1ccc(CNC(=O)C(C)N2C(=O)NC(c3ccccc3)(c3ccccc3)C2=O)cc1 (centres undefined) | inactive | –
O=C(CCC(=O)N(CC(=O)NC1CCCC1)Cc1ccc2c(c1)OCO2)Nc1ccccn1 | inactive | –
O=C(Cc1cccs1)Nc1cccc(C(=O)Nc2ccco2)c1 | inactive | –
CCc1ccc(N2CCN(S(=O)(=O)CC34CCC(CC3=O)C4(C)C)CC2)cc1 (centres undefined) | inactive | –
Cc1ccc(S(=O)(=O)N(CC(O)CN2C(=O)NC(C)(C)C2=O)c2cccc([N+](=O)[O-])c2)cc1 (centres undefined) | inactive | –

Structure (SMILES) | Potency | activity change, negative = growth inhibition
COc1cccc(CNC(=O)C(C)n2ccc3cc(S(=O)(=O)N4CCCCCC4)ccc32)c1 (centres undefined) | active: 5.17 µM | –
O=C(Nc1ccc(Cl)c(S(=O)(=O)N2CCOCC2)c1)c1cc(-c2ccccn2)nc2ccccc12 | inconclusive [inhibitor, single point] | –
NS(=O)(=O)c1cccc(NC(=O)COC(=O)c2ccc(S(=O)(=O)N3CCOCC3)cc2)c1 | inactive | –
CN1CCN(c2ccccc2NC(=O)c2cc3ccccc3o2)CC1 | inconclusive [inhibitor, single point] | –
O=C1CN(C(=O)COc2ccc([N+](=O)[O-])cc2Cl)c2ccccc2N1 | inactive | –
COc1ccc(-c2nn(C)c3sc(C(=O)N4CCN(c5ccccc5F)CC4)cc23)cc1OC | inconclusive [inhibitor, single point] | –
Cc1ccc(C(=O)Nc2cccc(C(=O)N3CCN(C)CC3)c2)cc1 | inactive | –
O=C(Cc1ccc(Cl)cc1)N1CCN(c2ccc(F)cc2)CC1 | inconclusive [inhibitor, single point] | –
COC(=O)c1cc2n(n1)CCN(Cc1ccc(OC)cc1)C2=O | inactive | –
COc1ccccc1C(NC(=O)C1CCN(CCc2ccc(Br)cc2)CC1)c1ccccn1 (centres undefined) | inconclusive [inhibitor, partial curve] | –
CC(NC(=O)C(=O)NN=C1CCCC1)c1ccccc1 (centres undefined) | inactive | –
Cc1cnc(NC(=O)Nc2ccc(OCc3ccccc3)cc2)c(Br)c1 | inconclusive [inhibitor, single point] | –
COc1ccc(C(=O)Nc2ccccc2-c2ccccc2)cc1Cl | inconclusive [inhibitor, single point] | –
CCS(=O)(=O)c1ccc(-c2csc(-c3ccc(Cl)cc3)n2)c(Cl)c1Cl | inconclusive [inhibitor, full curve, poor fit] | –
O=C(Nc1ccccc1C(=O)Nc1ccncc1)c1cccc([N+](=O)[O-])c1 | inconclusive [inhibitor, single point] | –
COC(=O)[C@@]1(Cc2ccc(F)cc2)[C@H]2c3cc(C(=O)N4CCCC4)n(Cc4ccc(S(C)(=O)=O)cc4)c3C[C@H]2CN1C(=O)c1ccccc1 | inconclusive [inhibitor, single point] | –
COCCN(C(=O)COC(=O)C(C)(C)Oc1ccc(Cl)cc1)c1c(N)n(Cc2ccccc2)c(=O)[nH]c1=O | inactive | –
Cc1ccc2oc(=O)c3cc(C(=O)NCCCN4CCN(C)CC4)sc3c2c1 | inconclusive [inhibitor, single point] | –
Cc1cccc2c1-c1sc(C(=O)NCCc3ccc(Cl)cc3)cc1CO2 | active: 13 µM | –
O=[N+]([O-])c1ccc(NN=C2CCCCC2)c([N+](=O)[O-])c1 | inconclusive [inhibitor, single point] | –
Cc1ncc2c(c1CNC(=O)c1ccsc1)CCN(C(=O)c1c(F)cccc1Cl)C2 | – | inactive: 3.21% [at 9.04 µM]
Cc1cc(/C=C2\C=Cc3ccccc32)ccc1N(C)C | inconclusive [inhibitor, partial curve, poor fit] | –
CC1(C(=O)Nc2ccc(Cl)c(Cl)c2)CCN1C(=O)CCC1CCCC1 (centres undefined) | active: 23.1 µM | –
